PubChem BioAssay AID488969 (Vanderbilt High Throughput Screening Facility, 2010)
The full ranking holds about 110,000 compounds; the median of “z-score” is about -0.1, and the highest 2% start at about 2. This is one part of the list. Active and inactive are the calls of the source.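 The calls were made as follows: active = z-score in the third read window above 3 or below -3; inactive = the rest.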

Biological target: Metabotropic glutamate receptor 8 (Rattus norvegicus) (UniProt P70579)
Assay: rat mGluR8 modulators via GIRK flux, primary screen, cell-based, thallium flux, HTS (AID 488969)
Settings: HEK293 rat mGluR8, GIRK (G protein-gated inwardly rectifying potassium channel) thallium flux, FluoZin2; at 10 µM; stronger effect = higher value; submaximal glutamate (EC20) added with thallium

Sequence of UniProt P70579 (P70579 whole entry, looked up): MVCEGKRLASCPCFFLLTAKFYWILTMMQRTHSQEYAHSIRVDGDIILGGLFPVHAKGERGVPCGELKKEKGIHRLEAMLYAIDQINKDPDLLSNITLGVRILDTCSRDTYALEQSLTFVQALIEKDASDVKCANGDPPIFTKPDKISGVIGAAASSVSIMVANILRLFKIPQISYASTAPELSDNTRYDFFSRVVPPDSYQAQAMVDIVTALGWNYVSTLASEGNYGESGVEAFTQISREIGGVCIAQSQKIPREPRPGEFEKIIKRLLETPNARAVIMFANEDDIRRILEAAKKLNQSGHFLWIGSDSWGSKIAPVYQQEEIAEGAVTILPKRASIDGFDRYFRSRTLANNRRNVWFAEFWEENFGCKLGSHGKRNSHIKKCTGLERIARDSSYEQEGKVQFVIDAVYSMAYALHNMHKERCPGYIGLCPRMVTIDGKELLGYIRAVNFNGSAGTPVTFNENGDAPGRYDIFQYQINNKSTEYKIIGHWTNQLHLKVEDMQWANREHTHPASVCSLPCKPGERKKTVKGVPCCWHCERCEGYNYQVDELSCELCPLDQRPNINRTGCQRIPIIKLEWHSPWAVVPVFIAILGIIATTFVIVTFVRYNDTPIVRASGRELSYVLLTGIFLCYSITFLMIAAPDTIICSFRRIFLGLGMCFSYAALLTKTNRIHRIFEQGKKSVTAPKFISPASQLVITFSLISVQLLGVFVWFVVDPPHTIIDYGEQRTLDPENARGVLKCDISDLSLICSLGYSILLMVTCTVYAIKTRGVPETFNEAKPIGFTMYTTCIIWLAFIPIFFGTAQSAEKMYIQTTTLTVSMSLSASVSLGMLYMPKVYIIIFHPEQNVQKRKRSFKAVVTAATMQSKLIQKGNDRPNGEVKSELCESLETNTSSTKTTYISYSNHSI

Row | Compound | z-score
1 | Cc1cc(C(=O)NCc2cccs2)n(-c2ccccc2)n1 | -0.362
2 | CN1CCN(C(=O)C23CCC(C)(c4nc5ccccc5nc42)C3(C)C)CC1 (centres undefined) | -0.481
3 | CC1CCN(C(=O)C2CCN(S(=O)(=O)c3cnc[nH]3)CC2)CC1 | -1.27
4 | CCCNS(=O)(=O)c1ccc(OCC(=O)NCc2ccc3c(c2)OCO3)cc1 | 0.648
5 | Cc1cc(C)nc(SCC(=O)Nc2ncc3c(n2)CCCC3=O)n1 | -0.264
6 | COc1ccccc1OCC(=O)NN=C(Cc1ccccc1)Cc1ccccc1 | -0.606
7 | CCOc1ccc(CCNC(=O)c2cc3ccccn3n2)cc1OCC | -0.476
8 | COc1ccc(NC(=O)COc2ccc(C(=O)NC3CCCc4ccccc43)cc2OC)cc1 (centres undefined) | 0.0361
9 | COc1ccc2ncc(S(=O)(=O)c3ccccc3)c(N3CCC4(CC3)OCCO4)c2c1 | -0.776
10 | Cn1c(OCc2ccc3c(c2)OCO3)nc2c1c(=O)n(Cc1ccc(Cl)c(Cl)c1)c(=O)n2C | -0.393
11 | CCN(CC(=O)Nc1c(C(=O)OC)[nH]c2ccc(Cl)cc12)c1ccc2c(c1)OCO2 | 0.184
12 | Cc1cc(C(F)F)n2nc(C(=O)Nc3ccc(F)cc3F)nc2n1 | -0.044
13 | CC(CNCC1CCCO1)COc1cccc2ccccc12 (centres undefined) | 0.285
14 | COc1ccc(N2CCCn3c2nc2c3c(=O)n(Cc3ccccc3F)c(=O)n2C)c(OC)c1 | active: -4.26
15 | CCN(C(=O)COc1cc(=O)n(CC)c2ccccc12)c1cccc(Cl)c1 | -1.59
16 | Cc1cccc(-n2nnnc2SCc2csc(-c3ccccc3)n2)c1 | -0.0119
17 | CC12CCC(C(=O)N(c3ccccc3Cl)C1=O)C2(C)C (centres undefined) | 0.208
18 | O=S(=O)(Nc1cccc2nsnc12)c1ccccc1 | 0.265
19 | O=C(O)C1CCCCC1C(=O)NCCCc1ccccc1 (centres undefined) | 0.0918
20 | COc1cc(/C=N/NC(=O)c2cccnc2)ccc1OCC(=O)Nc1c(C)cc(C)cc1C | -0.566
21 | COc1cccc(C(=O)NCCSc2ccc(C)cc2)c1 | 0.21
22 | CC1CCCN(S(=O)(=O)c2ccc(N(C(=O)c3cnccn3)C(C(=O)NC3CCCCC3)c3cccs3)cc2)C1 (centres undefined) | -0.0389
23 | Cc1cc(N2CCN(c3ccc(F)cc3)CC2)nc(-c2ccccc2)n1 | -0.298
24 | CC1CCN(c2cc(N)c(Cl)cc2[N+](=O)[O-])CC1 | -0.475
25 | O=C(Oc1ccc2c(-c3ccccc3)cc(=O)oc2c1)c1cccs1 | -0.508
26 | Cc1cccc(OCCCC(=O)NCc2ccco2)c1 | -0.0562
27 | CCOC(=O)CSc1nnc(CNC(=O)c2ccc(OC)cc2)n1-c1ccc(OC)cc1 | 0.729
28 | O=C(CCn1nc(-c2ccc(Cl)cc2)ccc1=O)NCc1ccccn1 | -0.522
29 | Cc1ccccc1Nc1nnc(SCc2cc([N+](=O)[O-])cc3c2OCOC3)s1 | -0.061
